B1: chimeric antigen receptor Y022-28BBZ (scFv(EGFR)-CD28a-CD28b-CD137-CD3 zeta) on T lymphocytes (other)
chain: DIQMTQSPSSLSASVGDRVTITCHASQDINVNIGWLQQKPGKAFKGLIYHGKNLEDGVPSRFSGSGSGTDFTLTISSLQPEDFATYYCNQYENIPLTFGQGTKVEIKRGGGGSGGGGSGGGGSDVQLVESGGGLVQPGGSLRLSCAVSGYSITSDYAWNWIRQAPGKGLEWLGYISYRGRTQYNPSLKSRISITRDNSKNTFFLQLNSLRAEDTAVYYCARMGKNWDYWGQGTLVTVSSTTTPAPRPPTPAPTIASQPLSLRPEACRPAAGGAVHTRGLDFACDFWVLVVVGGVLACYSLLVTVAFIIFWVRSKRSRLLHSDYMNMTPRRPGPTRKHYQPYAPPRDFAAYRSKRGRKKLLYIFKQPFMRPVQTTQEEDGCSCRFPEEEEGGCEL[about 120 residues skipped]
B2: chimeric antigen receptor Y022-28Z (scFv(EGFR)-CD28a-CD28b-CD3 zeta) on T lymphocytes (other)
chain: DIQMTQSPSSLSASVGDRVTITCHASQDINVNIGWLQQKPGKAFKGLIYHGKNLEDGVPSRFSGSGSGTDFTLTISSLQPEDFATYYCNQYENIPLTFGQGTKVEIKRGGGGSGGGGSGGGGSDVQLVESGGGLVQPGGSLRLSCAVSGYSITSDYAWNWIRQAPGKGLEWLGYISYRGRTQYNPSLKSRISITRDNSKNTFFLQLNSLRAEDTAVYYCARMGKNWDYWGQGTLVTVSSTTTPAPRPPTPAPTIASQPLSLRPEACRPAAGGAVHTRGLDFACDFWVLVVVGGVLACYSLLVTVAFIIFWVRSKRSRLLHSDYMNMTPRRPGPTRKHYQPYAPPRDFAAYRS[about 120 residues skipped]

How the values were obtained:
[1] = molecular target: EGFRvIII on U87-EGFRvIII cells (human, UniProt P00533); assay: cell-based or functional assay
[2] = molecular target: EGFR on the cell surface (human, UniProt P00533); assay: cell-based or functional assay

Row | Binder | Cytotoxicity % (LDH release, 18 h), U87-EGFRvIII target cells, effector target ratio 1:1 [1] | Cytotoxicity % (LDH release, 18 h), U87-EGFRvIII target cells, effector target ratio 1:3 [1] | Cytotoxicity % (LDH release, 18 h), U87-EGFRvIII target cells, effector target ratio 3:1 [1] | Cytotoxicity % (LDH release, 18 h), A431 target cells, effector target ratio 1:1 [2] | Cytotoxicity % (LDH release, 18 h), A431 target cells, effector target ratio 1:3 [2] | Cytotoxicity % (LDH release, 18 h), A431 target cells, effector target ratio 3:1 [2] | Cytotoxicity % (LDH release, 18 h), CAL27 target cells, effector target ratio 1:1 [2] | Cytotoxicity % (LDH release, 18 h), CAL27 target cells, effector target ratio 1:3 [2] | Cytotoxicity % (LDH release, 18 h), CAL27 target cells, effector target ratio 3:1 [2] | Cytotoxicity % (LDH release, 18 h), K2 target cells, effector target ratio 1:1 [2] | Cytotoxicity % (LDH release, 18 h), K2 target cells, effector target ratio 1:3 [2] | Cytotoxicity % (LDH release, 18 h), K2 target cells, effector target ratio 3:1 [2] | Cytotoxicity % (LDH release, 18 h), MDA-MB-468 target cells, effector target ratio 1:1 [2] | Cytotoxicity % (LDH release, 18 h), MDA-MB-468 target cells, effector target ratio 1:3 [2] | Cytotoxicity % (LDH release, 18 h), MDA-MB-468 target cells, effector target ratio 3:1 [2] | Cytotoxicity % (LDH release, 18 h), RWPE-1 target cells, effector target ratio 1:1 [2] | Cytotoxicity % (LDH release, 18 h), RWPE-1 target cells, effector target ratio 1:3 [2] | Cytotoxicity % (LDH release, 18 h), RWPE-1 target cells, effector target ratio 3:1 [2] | Cytotoxicity % (LDH release, 18 h), U87-EGFR target cells, effector target ratio 1:1 [2] | Cytotoxicity % (LDH release, 18 h), U87-EGFR target cells, effector target ratio 1:3 [2] | other results
1 | B1 | 42% | 19% | 73% | 37% | 12% | 67% | 49% | 15% | 70% | 2% | 0.3% | 11% | 45% | 14% | 57% | 7% | 3% | 12% | 17% | 6% | Cytotoxicity % (LDH release, 18 h), U87-EGFR target cells, effector target ratio 3:1 [2]: 35%; Cytotoxicity % (LDH release, 18 h), U87 target cells, effector target ratio 1:1 [2]: 4%; Cytotoxicity % (LDH release, 18 h), U87 target cells, effector target ratio 1:3 [2]: 5%; Cytotoxicity % (LDH release, 18 h), U87 target cells, effector target ratio 3:1 [2]: 2%
2 | B2 | 31% | 9% | 65% | 24% | 5% | 45% | 23% | 8% | 50% | 0.6% | 2% | 3% | 23% | 1% | 41% | 6% | 4% | 8% | 16% | 7% | Cytotoxicity % (LDH release, 18 h), U87-EGFR target cells, effector target ratio 3:1 [2]: 25%; Cytotoxicity % (LDH release, 18 h), U87 target cells, effector target ratio 1:1 [2]: 3%; Cytotoxicity % (LDH release, 18 h), U87 target cells, effector target ratio 1:3 [2]: 1%; Cytotoxicity % (LDH release, 18 h), U87 target cells, effector target ratio 3:1 [2]: 4%
